# From the supplement of paper PMC10681739
# Whole data set: some 2,700 sequences, median “arbitrary fluorescence units” near 4,100, cut for the highest 2% near 54,000. The list shows a part of the results.
# Biological target: T1, ETS1 (UniProt P14921)
# T1 sequence: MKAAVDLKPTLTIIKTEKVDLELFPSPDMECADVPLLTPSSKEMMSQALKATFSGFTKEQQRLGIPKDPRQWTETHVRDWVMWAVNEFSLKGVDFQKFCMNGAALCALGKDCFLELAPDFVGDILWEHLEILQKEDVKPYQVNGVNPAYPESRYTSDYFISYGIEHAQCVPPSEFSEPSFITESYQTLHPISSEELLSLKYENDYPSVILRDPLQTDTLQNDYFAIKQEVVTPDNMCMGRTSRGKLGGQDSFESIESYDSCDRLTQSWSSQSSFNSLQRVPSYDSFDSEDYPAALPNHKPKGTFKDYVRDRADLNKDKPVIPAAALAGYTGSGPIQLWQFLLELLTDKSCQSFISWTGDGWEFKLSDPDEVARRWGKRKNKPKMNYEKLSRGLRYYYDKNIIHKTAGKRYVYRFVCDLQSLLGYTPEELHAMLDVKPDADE
# Assay: ETS1 binding intensity (PBM fluorescence) (arbitrary fluorescence units); higher = stronger binding
# Settings: ETS1 concentration 10 nM
# Protocol: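 gcPBM on wild-type 36-bp genomic probes with two neighbouring ETS1 sites (4-24 bp apart). Recombinant human ETS1 (10 nM) was detected with anti-ETS1 antibody fluorescence. Values are medians over 3 replicate spots. The probes sit in constant array flanks that are not printed.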
row,Sequence,ETS1 binding intensity
1,GAACAAGGGCAGGATGTAATAAGGAAACAGATGGTA,3120
2,CGCAGCCAGCCACTTCCTCCTTCCTGAAACACTCTC,12800
3,GTCGTGGCTTCCTGGTGAGTAAACTTCCTGTTTTTC,9200
4,GCTTGGCAGTCAGGAAGGACTTCCTGTTTCTGCTTC,14400
5,GGACAGCCGCCGCTTCCGGTTTCCGCGAGCGCAGGC,43000
6,CATGGCTTTCCTGTTTGGGTCTGAAGGAAGTGGCGG,8210
7,CTGGGTCATCCGGCAGCCCAGCAGCTTCCGGCCCCC,10300
8,CAGACTTCCGGGGTCGAGAACTACAACTTCCGACTT,61700
9,GCTGGGGCCCGGAAGGACGAAGCTTCCCGGCAGAGA,1660
10,GAGCTTCCGCTAGTCTTTCATCTTCAAAGGAAATCA,28900
11,CCTGGGAAGGAGGAAATTCTGTTTCCTGTCCTTGTT,5010
12,TGCAGGAAGCTGCAAGTCTCTCTGTAACATCCTGGG,587
13,TCTAGAGGAAGTTGCTCTGTGGCCACCGGATGCAGA,3350
14,GTGCCACCGGCATCCGGGCCAGGATGGCGCACTCAC,6120
15,AAAACATGGTAGGAAATGCAGTTTCCTGTGATCACA,2990
16,GCGTTACTTCCGGCGCGCGGCGGGCGGAAGTCCGGG,69700
17,CTCTAAGGAAGCGGTGTGTGCACCCACATCCTGGAC,469
18,TTACCTCAGGATGCGACGTTCCCGCTTCCGCCAGGC,946
19,ATGTTGTGACAGCTTCCTGCTTCCTCCTTCAGAGCT,8370
20,TATTCTGAACCACTTCCTGCTTCCGCAGCTTCAAAG,25200
21,ATTTGGGAAGACTTCCTGAAGGAAGCAGTAGTTAAG,3790

row,Sequence,ETS1 binding intensity
1,CCCTGGGGATGTGCTATCACCCATGCTTCCTGCAGA,234
2,CAGTACCAGGAAGTGCAGGCGATGAGGAAGCGCACG,2260
3,ACCGCGGGGAGGAAGCGCCCGCCGGAAGCAGTCGCA,2160
4,TAGCAGTTTCCTTCCCAGAGCCTCCAGGAAGTAACA,1890
5,CCTGGGAGGAAGTGGAGAGTCAGCAGGAAGTAGAAC,3370
6,CGGGGCGGAACCAGCCTAGCTTCTGCTTCCGGTGCG,6130
7,GGACCGGAAAAGGCCCCACCGACGGCCCGGAAGGTG,10800
8,CGGCCCTTCCATTTCCTGCCTTCCTGCCTGCATTTG,24200
9,GCCTGGAGGAGGAAATGCCTCCGGGAAATGGAAATG,2080
10,CTAAGGAGGAAACGGCTCAGAGAGGGGAAGTGTTTG,509
11,CTGCAGAAGAAGCGGAAGAGGAAGCTGGATAAGTCC,765
12,AGCCGGCTTTCCGGTGCCGCCACATTCCGGGCACCA,12700
13,TGGCTTTATGGGATGTGTTCATTTCCTGTGGCTGTG,5590
14,ACAACCTTTAAACTTCCGGTTTCCTCTGTGCGAGGT,56700
15,AAACACACCATCCTGTTCTAGGACATCCTGTGCCTG,4870
16,CCTGGGAGGAAGTGACCCAAGAGCAGGAAGTGCGGG,5080
17,AATCCACAACTTCCTCCACCTACTTCCTGGCTATAT,11300
18,CCTAACTTCCTTTCTCTGCCACTGACTTCCTGTTGT,16100
19,CACCATGGGAGGAAGTGGCCTGGGAAGTTGAAACAA,2550
20,TCCCCAAACCAAGGAAGCCATTTCCTTCTCTAGGAC,501
21,GCCCTTCCGGTTATTTCCCTTCCTGTTTGTCTGCCT,48700

row,Sequence,ETS1 binding intensity
1,TTGTTTCATTGTTTCCTTGTAGGATGTGGTTTCAAG,196
2,CAGAACACAGGAAACGCCTCTTCTTTCCTGTGACCA,9270
3,TCGGACCGGAAGGAGTTGTTGGCGCTTCCGGTGGCC,15900
4,AGTACACGGAAGCCGAGGACAAGAGCATCCGGCTCG,1780
5,GACAGGAAGTTTGTGAAGCTGGCAGGGCTTCCGTCC,6920
6,CAGCATATCCGCTACAACCCGCTGCAGGATGAGTGG,18900
7,TGACCTACTTCCTCTTTCTGGTGGCTTCCTGCTAAA,20100
8,ACACTGGGCGGAAAAGCCCCGGTTTCCTGTCCCCCG,7870
9,TACATTTCCCAGGAGCCTCGGCGCGCACTTCCGCTT,2710
10,GGCAGCAGTGGCATCCTGACCGGAAGTGCCTGCAGT,14300
11,AATACCGGAACATTTACACACACACATTTCCCAGCT,309
12,AGGTCGGAAGTCGCGGCTGTGGCGAAGCGGAATGCA,1120
13,CGCCCTCCTCTTCCGGGGTGGGGGAAGTGCGCCTCG,7880
14,GGACTTCCCAACTAGACAGACCAAATGAGGAAGTTG,880
15,AGTCAGGAAGTAGGCTTTGCAGTCCATTTCCTGGGG,4550
16,GCAGGAGGGAGGAAGAAAGGGAGGAAGACAGCGTGC,233
17,AGCCCAAGCGCGGAAGAGGGCGGAAGGAGAACCCCT,240
18,GCGCGAGCGACCAGGAAGCAGGAAACCCGGGCAAGC,917
19,GGACGGAGCTTCCGGCTCGAGGCGGAAGTGCTCGCG,30800
20,GCCACCAAGTGCCGGAAGCGGAAGCTGGAGCGCATC,8050
